# According to the supplement of paper PMC12645437, “Orthogonal IMiD-Degron Pairs Induce Selective Protein Degradation in Cells” (ACS Chemical Biology, 2025):
# This is one part of the list.
# Target: no compound (DMSO)
# Test: log2 fold change of degron read counts, EGFP-low vs EGFP+ sorted cells; higher = lower degron-EGFP level without compound (poor expression or instability)
# Details: compound: DMSO control; 18 h
# 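Also: jurkat cells carrying a lentiviral library of mutant zinc finger degrons fused to EGFP plus mCherry, mCherry+ cells FACS sorted, degron abundance counted by next-generation sequencing.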
row,Sequence,log2 fold change of degron read counts
1,FCCPVCGANFTQKGNLLRHIKL,-0.679
2,FWCPICGRCFTQKGNLLRHIKL,0.103
3,FTCDQCGAIFTQKGNLLRHIKL,-1.73
4,FVCNQCGRPFTQKGNLLRHIKL,-1.04
5,FCCPVCGAWFTQKGNLLRHIKL,0.515
6,FACNVCGARFTQKGNLLRHIKL,-0.517
7,FMCEICGRPFTQKGNLLRHIKL,-1.45
8,FICPQCGAHFTQKGNLLRHIKL,-0.253
9,FMCSVCGHSFTQKGNLLRHIKL,-0.271
10,FKCSVCGHCFTQKGNLLRHIKL,-0.861
11,FWCEICGRVFTQKGNLLRHIKL,0.938
12,FWCEICGRTFTQKGNLLRHIKL,0.0869
13,FRCEICGHGFTQKGNLLRHIKL,-1.44
14,FWCDQCGAGFTQKGNLLRHIKL,-0.767
15,FVCPICGANFTQKGNLLRHIKL,-0.257
16,LECPICGFVCTQKGNLLRHIKL,0.468

row,Sequence,log2 fold change of degron read counts
1,LGCEICGFICTQKGNLLRHIKL,1.49
2,FICPVCGADFTQKGNLLRHIKL,-0.265
3,FGCEQCGANFTQKGNLLRHIKL,-0.799
4,LGCPICGFECTQKGNLLRHIKL,0.457
5,FSCNQCGANFTQKGNLLRHIKL,-1.21
6,FCCNQCGRLFTQKGNLLRHIKL,0.354
7,FYCPICGHTFTQKGNLLRHIKL,0.146
8,FTCSVCGHIFTQKGNLLRHIKL,-0.602
9,LWCNQCGFICTQKGNLLRHIKL,2.94
10,FLCDQCGAWFTQKGNLLRHIKL,-0.0628
11,FRCSVCGHAFTQKGNLLRHIKL,-0.429
12,FNCPVCGAWFTQKGNLLRHIKL,0.34
13,FFCPICGHPFTQKGNLLRHIKL,0.835
14,FQCPICGHMFTQKGNLLRHIKL,0.364
15,FMCPVCGAMFTQKGNLLRHIKL,0.994
16,FMCDICGAKFTQKGNLLRHIKL,-0.57
